Out of some 150,000 compounds screened, about 540 (0.36%) showed an effect of 50% or more. The list shows a part of the results.

Data on 86 molecules can be found in ChEMBL document CHEMBL4888484, “Replenishing the malaria drug discovery pipeline: Screening and hit evaluation of the MMV Hit Generation Library 1 (HGL1) against asexual blood stage Plasmodium falciparum ,using a nano luciferase reporter read-out” (2022).

In the assay the test system is Plasmodium falciparum. As to the kind of experiment: Primary screen in NF54 nanoGlo assay, in single point, at 2uM, 72h; a lower Z score goes with more inhibition. Format: functional, Erythrocyte. Conditions: timepoint 72 hour.
As to `CC(C)(C)[C@H]1CCc2c(sc3nc(-c4ccc(Br)cc4)cn23)C1`, the “% Inhibition” value was -7% and the Z score is given as 0.97.
For `COC[C@@H](O)CN(C)C(=O)CC1CCCCCC1`, the “% Inhibition” value is -16% and the Z score came to 1.64.
In the same order, the values of `Cc1ccc(S(=O)(=O)N2CC3CC2CO3)cc1F` (configuration not stated) are -2% and 0.28.
Turning to `CC(C)(C)C(=O)NCCNC(=O)c1ccncc1`, the “% Inhibition” value was -35% and the Z score came to 4.1.
In the same order, the values of `CC(C)C1OCCC1C(=O)Nc1cnccc1-c1ccccc1` (configuration not stated) are 0% and 0.06.
For `CCC(O)CN1CCOC(CN(CC(C)C)C(=O)c2ccccc2)C1` (configuration not stated), the “% Inhibition” value was -5% and the Z score worked out at 0.72.
In the same order, the values of `Cc1ccccc1-c1noc(Cn2ccnc2-c2cc3n(n2)CCCNC3)n1` are -3% and 0.5.
Consider `CCOc1ccc(C(=O)NCC(=O)N[C@H]2C[C@@H](OC(C)C)C2)cc1`, for which the “% Inhibition” value is given as -2% and the Z score worked out at 0.24.
For the molecule `CCn1cc(NC(=O)NCC(F)(F)F)cn1`, the “% Inhibition” value is -6% and the Z score is listed as 0.74.
In the case of `Cc1nc2nc(-c3ccc(Cl)cc3)nn2c(C)c1CC(=O)N1CCCCC1`, the “% Inhibition” value is -19% and the Z score stood at 2.8.
For the molecule `Cc1cnc([C@H](C)NC(=O)N(Cc2ccccc2)CC(C)(C)O)s1`, the “% Inhibition” value came out at 3% and the Z score is reported as -0.33.
Regarding `Cn1cc(C2CC2C(=O)Nc2cc(C(F)(F)F)c[nH]c2=O)cn1` (configuration not stated), the “% Inhibition” value is recorded as -9% and the Z score turned out to be 0.83.
As for `CCn1cc(C(=O)Nc2cc(S(=O)(=O)CC)ccc2O)c(C)n1`, the “% Inhibition” value was -6% and the Z score amounted to 0.8.
With `CCN1C(=O)CCc2cc(N[C@@H](COC)C3CCOCC3)ccc21`, the “% Inhibition” value is recorded as 10% and the Z score is given as -1.14.
In the same order, the values of `CCn1c(CNc2ccccc2C(=O)NCc2ccco2)nc2cc(S(=O)(=O)N(C)C)ccc21` are -19% and 1.81.
Consider `O=C(Nc1nc2ccccc2s1)C1CCN(c2ccc(-c3cccnc3)nn2)CC1`, for which the “% Inhibition” value is on record as 0% and the Z score is 0.03.
On to `CN(C)C(=O)c1ccc2c(c1)N(CC(=O)N1CCC(Cc3ccccc3)CC1)C(=O)CO2`, for which the “% Inhibition” value was -14% and the Z score is 1.84.
With `OCCOCCNCc1c(Cl)cccc1Cl`, the “% Inhibition” value is -10% and the Z score was 1.16.
`Cc1cc(CNC(=O)[C@H]2CCC[C@H](O)C2)cc(C)n1`: the “% Inhibition” value is 0% and the Z score worked out at 0.08.
In the same order, the values of `Cc1ccc(CCC(=O)NCCc2n[nH]c(C)n2)c(C)c1` are 2% and -0.22.
In the case of `Cc1cnc(C)c(-c2cc(O)c3c(c2)CN(CC[C@H]2CCCN2C)CCO3)n1`, the “% Inhibition” value was -17% and the Z score is 2.09.
In the same order, the values of `N#Cc1ccc(C(=O)NS(=O)(=O)CCCC(F)(F)F)cn1` are -6% and 0.94.
With `CCCCN(C(=O)c1ccc2nnnn2c1)[C@@H](C)CC`, the “% Inhibition” value was -3% and the Z score is reported as 0.58.
In the same order, the values of `CCc1noc(C)c1C(=O)N[C@@H]1COCC[C@@H]1Oc1ccc(C)nc1` are -1% and 0.13.
In the same order, the values of `O=C(N[C@H]1CO[C@@H](CN2CCC(F)(F)CC2)[C@@H]1O)C1CCOCC1` are -5% and 0.84.
The corresponding values for `Cc1nc(C)c(CNc2ccn(CCc3ccncc3)n2)s1` are -10% and 1.28.
Consider `CC(C)=CCN1C(=O)[C@@H]2CC[C@H]1CN(C(=O)Nc1ccc(F)cc1F)C2`, for which the “% Inhibition” value is recorded as 3% and the Z score is on record as -0.53.
The corresponding values for `COc1ccccc1C(=O)NC[C@H]1CCCCC(=O)N1` are -14% and 2.66.
In the same order, the values of `CCn1cnnc1CCNC1CCN(c2ccc3c(c2)CCC3)CC1` are -2% and 0.26.
In the same order, the values of `OC[C@]1(F)CCCN(CC2CCC2)C1` are -15% and 1.5.
For `COc1nccc(C(=O)N(C)C2(Cc3ccccc3)CCCC2)n1`, the “% Inhibition” value is reported as -7% and the Z score is reported as 0.89.
The corresponding values for `CCC(=O)Nc1c(-c2ccccn2)nsc1C(=O)NCc1ccc(F)c(Cl)c1` are 7% and -0.98.
Turning to `O=C1CN(S(=O)(=O)c2ccc(Cl)cc2)C[C@H]2c3ccccc3CCN12`, the “% Inhibition” value is on record as -8% and the Z score was determined as 1.09.
In the same order, the values of `COCCN1C(=O)CN(C2CCN(CC(=O)Nc3cccc(F)c3)CC2)C1=O` are -6% and 0.66.
Take `CCN(C(=O)[C@H]1CCOC1)c1ccc(Cl)c(F)c1`: the “% Inhibition” value was 2% and the Z score is recorded as -0.37.
For `N#CC1(C(=O)N2CCCCCCC2)CCC1`, the “% Inhibition” value was -7% and the Z score turned out to be 1.07.
In the case of `CCn1cncc1Cn1ccnc1-c1nccn1C`, the “% Inhibition” value turned out to be 9% and the Z score is listed as -1.31.
The corresponding values for `CC(C)=CC1C(C(=O)N2CCCC2C(=O)Nc2nc3ccccc3s2)C1(C)C` (configuration not stated) are -10% and 1.65.
Take `CCn1ccc(C(=O)N[C@@H]2CN(c3ccncn3)C[C@H]2CO)n1`: the “% Inhibition” value is reported as -12% and the Z score is listed as 1.75.
`CCc1cc(C(=O)Nc2cnns2)[nH]n1`: the “% Inhibition” value is on record as -17% and the Z score is listed as 1.7.
As for `COc1ccc(C(=O)N[C@@H]2CCC[C@@H]2C(=O)N2CCN(c3cccc(C)c3)CC2)cc1`, the “% Inhibition” value is recorded as -7% and the Z score stood at 0.91.
As for `Cc1ccc(CN(C)C(=O)Nc2cc([C@@H]3CCCO3)nn2C)s1`, the “% Inhibition” value was -12% and the Z score amounted to 1.19.
For the molecule `CN(C)c1ccc(CCc2ccnc3ccccc23)cc1`, the “% Inhibition” value turned out to be 2% and the Z score is reported as -0.24.
In the same order, the values of `FC(F)(F)C1CCN(Cc2nc(C3CCCC3)no2)CC1` are -4% and 0.33.
On to `O=C(NC1CCc2ccccc21)C1CCN(C(=O)c2ncn3c2COC(c2ccccc2)C3)CC1` (configuration not stated), for which the “% Inhibition” value is given as -33% and the Z score is listed as 3.04.
The corresponding values for `COc1cccc(C(=O)N2CCN(C(=O)CCc3ccncc3)CC2)c1` are -18% and 3.4.
As for `O=C(Nc1ccnn1C1CCN(Cc2cccc3nonc23)CC1)c1cccc(F)c1`, the “% Inhibition” value was -4% and the Z score is given as 0.6.
With `CN=C(NCCOC)NCCc1cccc(F)c1`, the “% Inhibition” value is -10% and the Z score was determined as 1.52.
In the same order, the values of `Cc1cc(NC(=O)N2CCC(OC3CCC3)CC2)cn2ccnc12` are -1% and 0.14.
For `O=C(Cn1cnc2cc3ccccc3cc2c1=O)Nc1cc(C(F)(F)F)ccc1N1CCOCC1`, the “% Inhibition” value is given as -9% and the Z score worked out at 1.
Turning to `CC1(C)C[C@@H](c2cn(Cc3ccc(C(=O)O)s3)nn2)CCO1`, the “% Inhibition” value is -4% and the Z score was 0.8.
The corresponding values for `CCCCNC(=O)Cc1noc(-c2ccccc2-n2cnnn2)n1` are -19% and 3.87.
On to `CC(C)c1nccc(N2CC3C(C2)C3(C)C)n1` (configuration not stated), for which the “% Inhibition” value came out at 2% and the Z score was -0.33.
The corresponding values for `Cc1cccc(-c2nn3c(N4CCN(c5ccccn5)CC4)cc(C)nc3c2C)c1` are 5% and -0.84.
Regarding `Cn1nc2n(c1=O)CCN(C(=O)c1ccc3[nH]ccc3c1)CC2`, the “% Inhibition” value was -14% and the Z score was 1.78.
In the case of `CCc1cccc(NC(=O)N2C[C@@H](F)C[C@H]2C(=O)N2CCc3ccccc3C2)c1`, the “% Inhibition” value was -8% and the Z score was found to be 1.3.
In the same order, the values of `N#C[C@@H]1COCCN1C(=O)c1cccc(N2CCCC2=O)c1` are 0% and -0.02.
Take `Cc1cc(C)cc(CCC(=O)NC2(C#N)CCCCC2)c1`: the “% Inhibition” value stood at 1% and the Z score is recorded as -0.25.
The corresponding values for `CC[C@H]1CCc2[nH]c(=O)c(C(=O)Nc3nccc4ccncc34)cc2C1` are -4% and 0.55.
In the same order, the values of `CCc1ccc(O)c(NC(=O)[C@H](C)N)c1` are -7% and 0.85.
As to `Cc1cc(C(=O)N(C)CCN(C)C2CCCC2)cc(C)c1O`, the “% Inhibition” value is -3% and the Z score was 0.53.
`NC(=O)C1CCCC1NS(=O)(=O)CCc1cccs1` (configuration not stated): the “% Inhibition” value is on record as -2% and the Z score is recorded as 0.36.
In the same order, the values of `Cc1cc(C)cc(-c2nn(CN(CCC#N)CCC#N)c(=S)o2)c1` are -10% and 1.81.
Consider `CCn1c([C@H]2CCN(C(=O)Cc3ccccc3OC)C2)nc2cccnc21`, for which the “% Inhibition” value is recorded as -11% and the Z score came to 1.21.
For `CCCc1cc(-c2nc(-c3ccc(-n4nc(C)cc4N)cc3)no2)n(C)n1`, the “% Inhibition” value is reported as 71% and the Z score is listed as -14.18.
Regarding `O=C(CN1CCN(c2cccc3[nH]cnc23)CC1)NC1CC1`, the “% Inhibition” value was -11% and the Z score came to 1.83.
On to `Cc1ccc(Nc2nc(N3CCCC3)nc3nccnc23)cc1C`, for which the “% Inhibition” value was -9% and the Z score worked out at 1.03.
The corresponding values for `CCc1csc(Cn2cc(-c3ccc(F)c(OC)c3F)nn2)n1` are -13% and 1.21.
In the same order, the values of `O=C1NCC2(CCN(C(=O)c3csc4ccccc34)CC2)O1` are -18% and 2.72.
In the same order, the values of `COC1CCCC(CC(=O)Nc2cnccc2OC(C)(C)C)C1` (configuration not stated) are 6% and -0.67.
As to `O=C(C1CCCC(F)(F)C1)N1CCCC(OCC2CC2)C1` (configuration not stated), the “% Inhibition” value is listed as -5% and the Z score was found to be 0.52.
In the same order, the values of `COC[C@@H]1CCCN1C(=O)Cn1nc(C)n(-c2ccc3c(c2)OCO3)c1=O` are 7% and -1.34.
Regarding `CCC(C)N(CC(=O)N(Cc1ccco1)CC1CCCO1)C(=O)Cc1ccccc1` (configuration not stated), the “% Inhibition” value is on record as -7% and the Z score worked out at 0.99.
On to `Cc1ccc2nsnc2c1NS(=O)(=O)c1ccc(C2CCCCC2)cc1`, for which the “% Inhibition” value was determined as 2% and the Z score is -0.31.
In the case of `Cc1ccc(CC(=O)NC(C)(C)C#N)cc1Br`, the “% Inhibition” value is -4% and the Z score is 0.74.
With `O=C(c1ccc2c(c1)CCC2)N1CC(n2ccnn2)C1`, the “% Inhibition” value is given as -1% and the Z score was found to be 0.08.
In the same order, the values of `CC(C)[C@@H]1CN(Cc2nc(=O)[nH][nH]2)CCCO1` are -1% and 0.11.
`CCc1ccccc1NC(=O)Cn1c(C)nc2c(c1=O)CCCC2`: the “% Inhibition” value is reported as -4% and the Z score was found to be 0.46.
On to `O=C1CC[C@H](N2CCN(c3ccccn3)CC2)CCN1Cc1cc2c(cc1Cl)OCO2`, for which the “% Inhibition” value turned out to be 1% and the Z score is -0.11.
The corresponding values for `COc1ccc(S(=O)(=O)N2CCC3(CCC(=O)N3Cc3c(C)noc3C)CC2)cc1` are -15% and 2.21.
The corresponding values for `Cc1ccc(O[C@H]2CCCN(C(=O)c3ncccn3)C2)nn1` are -4% and 0.7.
For `c1cc(N2CCCO[C@@H](CN3CCCCC3)C2)ncn1`, the “% Inhibition” value is listed as -7% and the Z score amounted to 0.88.
`CS(=O)(=O)C[C@H](NCc1nnsc1Cl)c1ccccc1`: the “% Inhibition” value is -9% and the Z score was 0.87.
The corresponding values for `COc1cccc(CN2C(=O)C3(CCOCC3)C[C@H]2c2nnnn2C(C)(C)C)c1` are -2% and 0.25.
In the same order, the values of `CCN1C[C@@H](C(=O)N(Cc2ccccc2)c2ccccc2)CC1=O` are -9% and 1.71.
In the case of `Cc1cc(CNC(=O)Cc2cnc3c(C)cccn23)n(C)n1`, the “% Inhibition” value was determined as 19% and the Z score is on record as -2.46.

Usually % Inhibition stands for the change of the read-out against control, counted positive when it falls.
